The values that follow come from article PMC4336329 (PLoS ONE, 2015).

Molecules are shown by their SMILES. In all, about 310,000 compounds went through this assay and about 2,200 (0.71%) showed an effect of 50% or more. Effects have a minus sign here. The list shows a part of the results.

This experiment deals with human ether-à-go-go-related gene (hERG) potassium channel (human, UniProt Q12809). Description: primary screen, population patch clamp on CHO cells stably expressing hERG.
human ether-à-go-go-related gene (hERG) potassium channel, sequence (Q12809 whole entry, looked up): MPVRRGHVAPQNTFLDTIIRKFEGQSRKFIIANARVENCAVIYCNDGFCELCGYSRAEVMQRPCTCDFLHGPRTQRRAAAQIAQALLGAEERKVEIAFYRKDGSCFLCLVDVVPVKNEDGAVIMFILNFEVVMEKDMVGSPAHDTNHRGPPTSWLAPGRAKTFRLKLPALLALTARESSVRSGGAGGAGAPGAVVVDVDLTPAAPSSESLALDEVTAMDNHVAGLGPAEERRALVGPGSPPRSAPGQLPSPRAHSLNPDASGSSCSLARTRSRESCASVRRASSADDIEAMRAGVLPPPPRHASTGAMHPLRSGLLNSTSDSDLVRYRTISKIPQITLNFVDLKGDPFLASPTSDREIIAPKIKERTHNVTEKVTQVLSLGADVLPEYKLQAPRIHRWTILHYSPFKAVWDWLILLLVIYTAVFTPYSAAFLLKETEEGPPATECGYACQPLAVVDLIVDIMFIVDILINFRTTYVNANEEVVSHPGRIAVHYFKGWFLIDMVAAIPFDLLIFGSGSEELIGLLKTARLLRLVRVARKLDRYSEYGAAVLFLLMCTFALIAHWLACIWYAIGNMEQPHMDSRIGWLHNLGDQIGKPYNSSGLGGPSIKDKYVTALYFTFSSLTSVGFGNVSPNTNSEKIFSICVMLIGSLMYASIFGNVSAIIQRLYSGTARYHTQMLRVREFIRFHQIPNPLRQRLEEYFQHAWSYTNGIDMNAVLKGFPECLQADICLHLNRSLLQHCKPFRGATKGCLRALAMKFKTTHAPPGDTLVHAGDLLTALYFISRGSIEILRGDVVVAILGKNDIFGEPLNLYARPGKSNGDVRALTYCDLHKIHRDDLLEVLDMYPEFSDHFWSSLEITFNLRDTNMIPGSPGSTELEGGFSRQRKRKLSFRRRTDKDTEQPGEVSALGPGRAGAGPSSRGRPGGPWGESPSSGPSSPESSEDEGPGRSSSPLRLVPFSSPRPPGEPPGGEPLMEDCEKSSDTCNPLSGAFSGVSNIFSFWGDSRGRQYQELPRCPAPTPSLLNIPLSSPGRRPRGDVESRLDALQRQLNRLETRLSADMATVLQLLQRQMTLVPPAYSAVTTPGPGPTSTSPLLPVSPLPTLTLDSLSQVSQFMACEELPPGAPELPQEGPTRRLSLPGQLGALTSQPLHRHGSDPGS
For the compound `Cc1ccc(N2CC(C(=O)Nc3cccc(C(=O)NC4CC4)c3)CC2=O)cc1` (stereo not shown), the “hERG current change (%, negative = inhibition) at 1uM” value is -3.79%.

On to `O=C(Nc1nnc(S(=O)(=O)Nc2ccccc2)s1)C1CCCCC1`, for which the “hERG current change (%, negative = inhibition) at 1uM” value is 9.71%. Take `CCN1C(=O)C(=O)N(CC(=O)N2CCC(C)Sc3ccccc32)C1=O` (stereo not shown): the “hERG current change (%, negative = inhibition) at 1uM” value turned out to be 8.43%. Under `COc1ccc(CNC(=O)C2CCCN2S(=O)(=O)c2ccccc2)cc1` (stereo not shown) stands 27.6%; under `Cc1ccc(NC(=O)Cc2nnc(SCC(=O)Nc3ccc(N4CCOCC4)cc3)n2C)cc1`, 8.37%; under `CC(C)CC1NC(=O)N(Cc2cc(=O)n3ccsc3n2)C1=O` (stereo not shown), -11.4%. The value for `CC(C)(C)c1ccc(C(=O)c2c[nH]c(C(=O)NCc3ccco3)c2)cc1` was 6.46%; that for `Cc1ccc(N2CCN(c3ccc(NCc4nc5ccccc5n4C)cc3)CC2)cc1` was 14.8%; that for `CCCCCN1CC(=O)N2C(C)c3[nH]c4ccccc4c3C[C@H]2C1=O` (stereo partly shown) was 15%. As to `Cc1cc(NC(=O)COc2ncnc3sc(C)c(C)c23)no1`, the “hERG current change (%, negative = inhibition) at 1uM” value amounted to 1.7%. Regarding `COc1cccc(/C=C2\SC(=S)N(C(C(=O)O)c3ccccc3)C2=O)c1OC` (stereo not shown), the “hERG current change (%, negative = inhibition) at 1uM” value came out at 12%. The value for `Fc1ccc(-n2nnnc2-c2cnc(-c3cccs3)nc2C(F)(F)F)cc1` was 13.6%. As to `OCCC1CN(C/C(Cl)=C/c2ccccc2)CCN1C1CCCC1` (stereo not shown), the “hERG current change (%, negative = inhibition) at 1uM” value is -43.4%. The value for `O=C(c1cccs1)N1CCCC(c2nc3c(nnn3Cc3c(Cl)cccc3Cl)c(=O)[nH]2)C1` (stereo not shown) was -1.71%; that for `COc1cccc(CN2C(=O)NC3(CCCCCC3)C2=O)c1` was 11.8%. For `Cc1ccc(NC(=O)N2CCC(C(=O)NCC(C)C)CC2)cc1`, the “hERG current change (%, negative = inhibition) at 1uM” value came to 9.17%. The value for `CCn1c(=O)cc(SCC(=O)N2CCN(C3CCCCC3)CC2)c2ccccc21` was -0.841%.

For the compound `CCN(CC)S(=O)(=O)c1cccc(C(=O)Nc2cc(C)nn2-c2ccccc2)c1`, the “hERG current change (%, negative = inhibition) at 1uM” value is reported as -2.81%. In the case of `COc1ccc(NC(=O)Cn2nc(Cc3cccnc3)c3ccccc3c2=O)c(OC)c1`, the “hERG current change (%, negative = inhibition) at 1uM” value was -1%. The value for `Cc1ccc(-c2nc(CS(=O)(=O)CC(=O)NCc3cccc(F)c3)c(C)o2)cc1` was 16.8%. `Cc1ccc(-c2csc(N3CCN(c4cc5c(cc4Cl)nc(C(C)N)n5CCCO)CC3)n2)cc1` (stereo not shown): the “hERG current change (%, negative = inhibition) at 1uM” value came out at 12.2%.

As to `C=C1CCN([C@@H](Cc2ccccc2)C(=O)NCCC(C)C)S(=O)(=O)c2ccccc21`, the “hERG current change (%, negative = inhibition) at 1uM” value turned out to be 19.5%. Under `O=S(=O)(Nc1cccnc1)c1ccc(Cl)c(C(F)(F)F)c1` stands 10.2%; under `O=C(CSc1ccc(Cl)cc1)Nc1ccccc1Oc1ccccc1`, 12.4%; under `CCCC(=O)N1CCN(c2nc3ccc(Cl)cc3s2)CC1`, -26.4%. Under `Cc1cc(C(C#N)c2ccccc2)n2ncnc2n1` (stereo not shown) stands 9.73%; under `NC(=O)c1ccc(NC(=O)CN2CCN(Cc3ccccc3)CC2)cc1`, 9.17%.

In the case of `CCOC(=O)C1=C(Nc2ccc(C)cc2)CC(C)(O)C(C(=O)OCC)C1c1ccccc1` (stereo not shown), the “hERG current change (%, negative = inhibition) at 1uM” value was found to be 12.7%. The value for `O=[N+]([O-])c1ccc(CNc2cccc(F)c2)s1` was 3.19%; that for `O=C(N/C(=C\c1cn(-c2ccccc2)nc1-c1ccccc1)C(=O)N1CCOCC1)c1ccccc1` was 20%; that for `O=C1CCCC2=C1C(c1ccccc1)NC(=S)N2` (stereo not shown) was 13.8%. The value for `CCN(CC)CCn1c(=N)n(CCO)c2ccccc21` was 9.88%; that for `CCCOc1ccc(-c2c(=O)n(OCC(=O)OCC)c3ccccc3[n+]2[O-])cc1` was 12.3%.

For the compound `c1ccc(-c2nc(CSc3nnc(-c4cccs4)o3)cs2)cc1`, the “hERG current change (%, negative = inhibition) at 1uM” value is given as 7.66%. The value for `Cc1ccccc1OCCCCn1cnc2ccccc21` was 0.343%; that for `Nn1c(SCc2ccc(F)cc2)nnc1-c1ccncc1` was 9.04%.

In the case of `Cc1cccc(S(=O)(=O)Nc2ccc(-n3c(C)nc4ccccc4c3=O)cc2)c1`, the “hERG current change (%, negative = inhibition) at 1uM” value is -11.9%.

For the compound `CSCCC(NS(=O)(=O)c1ccccc1F)C(=O)OCc1ccccc1Cl` (stereo not shown), the “hERG current change (%, negative = inhibition) at 1uM” value was -0.748%. `Cc1ccc2c(c1)c1nnc(SCC(=O)N3CCCc4ccccc43)nc1n2CC(=O)O`: the “hERG current change (%, negative = inhibition) at 1uM” value was 4.27%. With `CC[C@@H](NS(=O)(=O)c1ccc(C)cc1)C(=O)Oc1ccc2c3c(c(=O)oc2c1)CCC3`, the “hERG current change (%, negative = inhibition) at 1uM” value was 11.7%.

In the case of `CC(Cc1cccs1)N(Cc1ccc(Cl)cc1)C(=O)c1ccncc1` (stereo not shown), the “hERG current change (%, negative = inhibition) at 1uM” value came to 7.5%. The value for `Cc1ccc(/C=N/NC(=O)c2cccc(NC(=O)c3ccccc3Cl)c2)o1` was 4.53%; that for `CCOC(=O)C(=O)/C(=C\N(C)C)c1onc(-c2c(Cl)cccc2Cl)c1C(=O)OC` was 8.35%. Consider `Cc1ccc(NC(=O)C(=O)NCC2CCN(C(=O)c3cccc([N+](=O)[O-])c3)CC2)cc1`, for which the “hERG current change (%, negative = inhibition) at 1uM” value is reported as 1.35%.

For the compound `Cc1sc2nc(CSCC(=O)NC(C)(C)C)[nH]c(=O)c2c1C`, the “hERG current change (%, negative = inhibition) at 1uM” value is on record as 12.1%. Regarding `O=c1oc2ccccc2cc1-c1nnc(NCc2ccco2)s1`, the “hERG current change (%, negative = inhibition) at 1uM” value was -3.01%. The value for `COc1ccc(-n2nnnc2SCC(=O)Nc2cccc(O)c2)cc1` was 7.05%; that for `CC(C)c1ccc(NC(=O)Cn2nnc(C(=O)NCc3ccco3)c2N)cc1` was 17.7%. Consider `C=C(C)CNC(=O)c1ccc2nc(Cc3ccc(OC)cc3)oc2c1`, for which the “hERG current change (%, negative = inhibition) at 1uM” value was determined as 16.4%. Take `O=S(=O)(Nc1nc2ccccc2nc1NCC1CCCO1)c1ccc(F)cc1` (stereo not shown): the “hERG current change (%, negative = inhibition) at 1uM” value is reported as 4.29%. The value for `CN(C(=O)C1CC1)C1CCS(=O)(=O)C1` (stereo not shown) was 13.2%; that for `CC(=O)c1cccc(NC(=O)CN2CCc3cc4c(cc3C2C)OCCCO4)c1` (stereo not shown) was 7.6%; that for `CCCn1c(=O)c(C(=O)Nc2ncccc2O)c(O)c2ccccc21` was 9.76%. Under `COc1ccc(/C=N/OCC(=O)N2CC3(C)CC2CC(C)(C)C3)cc1` (stereo not shown) stands -15.8%.

On to `CCc1nc2ccc(C(=O)N3CCN(c4cccc(Cl)c4)CC3)cc2nc1CC`, for which the “hERG current change (%, negative = inhibition) at 1uM” value is 7.35%.

As to `CC(=O)c1ccccc1C(=O)N(C)C1CCCN(Cc2ccccc2F)C1` (stereo not shown), the “hERG current change (%, negative = inhibition) at 1uM” value was 16.1%. Consider `C[C@H](NC(=O)c1[nH]cnc1C(=O)Nc1ccccc1)c1ccccc1`, for which the “hERG current change (%, negative = inhibition) at 1uM” value was found to be 9.95%. Turning to `Cc1ccc(N2C(=O)c3ccccc3C2=O)cc1`, the “hERG current change (%, negative = inhibition) at 1uM” value was determined as 12.3%. For `COc1ccccc1NC(=O)C(=O)N/N=C(\C)CC(=O)Nc1ccccn1`, the “hERG current change (%, negative = inhibition) at 1uM” value was 11%.

Turning to `CCN(CC)CCOC(=O)C1(c2ccc([N+](=O)[O-])cc2)CCCC1.Cl`, the “hERG current change (%, negative = inhibition) at 1uM” value is -8.01%. In the case of `CCCC(=O)NC(=S)Nc1sc2c(c1C(N)=O)CCC2`, the “hERG current change (%, negative = inhibition) at 1uM” value worked out at 11.1%. Under `COc1ccccc1N(CC(=O)Nc1ccc(S(=O)(=O)N2CCOCC2)cc1)S(C)(=O)=O` stands 14.4%; under `COc1cccc(CNC(=O)CN(C)S(=O)(=O)c2ccc3c(c2)CC(C)N3C(C)=O)c1` (stereo not shown), 10.9%; under `CC(C)C1Cc2c(sc3c2c(=O)n(Cc2ccccc2)c2nncn32)CO1` (stereo not shown), -8.12%. Take `COc1cc(C2C(C(=O)c3cccs3)=C(O)C(=O)N2CCN2CCOCC2)cc(OC)c1OC` (stereo not shown): the “hERG current change (%, negative = inhibition) at 1uM” value turned out to be 7.57%. As to `O=C1NC2(CCCCC2)N=C1c1ccc(F)cc1`, the “hERG current change (%, negative = inhibition) at 1uM” value is given as 2.53%. As for `CCC(=NC1CCN(Cc2ccccc2)CC1)c1c(O)[nH]c(=O)[nH]c1=O`, the “hERG current change (%, negative = inhibition) at 1uM” value is on record as -7.6%.

Regarding `O=C(O)c1ccc(N2CCCCC2)cc1`, the “hERG current change (%, negative = inhibition) at 1uM” value was 8.62%.

In the case of `COC(=O)Nc1nnc(-c2ccccc2Cl)s1`, the “hERG current change (%, negative = inhibition) at 1uM” value stood at 15%. Under `N#Cc1cnc2nc(SCc3ccccc3)nn2c1` stands 9.5%. On to `Cc1cc(C(=O)Cn2c(CO)nc3ccccc32)c(C)n1C`, for which the “hERG current change (%, negative = inhibition) at 1uM” value is reported as 9.28%. With `O=C(Nc1ccccc1)N1CCc2scc[n+]2-c2ccccc21.[Br-]`, the “hERG current change (%, negative = inhibition) at 1uM” value is 14.5%. As for `CCCC(=O)Nc1ccc(Cl)c(NC(=O)CC)c1`, the “hERG current change (%, negative = inhibition) at 1uM” value was found to be 6.91%. On to `COc1cccc2c1cc1c(=O)n(CC(=O)NCc3ccccn3)nc(C)n12`, for which the “hERG current change (%, negative = inhibition) at 1uM” value is 11%. Under `COC(=O)c1ccc(C2Nc3cccc4cccc(c34)N2)cc1` stands 7.65%.

With `CC(C)N(C(=O)c1ccc2nc(-c3ccccc3)c(-c3ccccc3)nc2c1)C(C)C`, the “hERG current change (%, negative = inhibition) at 1uM” value was 9.62%. Take `CCc1nnc(NS(=O)(=O)c2ccc(NC(=O)c3cccc(Cl)c3)cc2)s1`: the “hERG current change (%, negative = inhibition) at 1uM” value was 14%. For `CN(C)S(=O)(=O)c1cccc(NC(=O)COc2nc3ccccc3nc2N2CCOCC2)c1`, the “hERG current change (%, negative = inhibition) at 1uM” value was -1.88%.

As to `Cc1ccnc(NC(=O)c2ccco2)n1`, the “hERG current change (%, negative = inhibition) at 1uM” value stood at 10.5%. `CCCCNC(=O)CS(=O)Cc1nc(-c2cccs2)oc1C` (stereo not shown): the “hERG current change (%, negative = inhibition) at 1uM” value was -2.68%.

Consider `CCC(CC)NC(=O)Nc1ccc(F)c(Cl)c1`, for which the “hERG current change (%, negative = inhibition) at 1uM” value stood at 1.21%. In the case of `N=c1c2c3c(sc2ncn1Nc1ccccc1)CCC3`, the “hERG current change (%, negative = inhibition) at 1uM” value is reported as 1.05%. With `Clc1ccc(-c2n[nH]c3c2CCC3)cc1Cl`, the “hERG current change (%, negative = inhibition) at 1uM” value stood at 12.9%. Under `CCCn1c(=N)n(CC(O)c2ccc(C)cc2)c2ccccc21.Cl` (stereo not shown) stands -14.9%; under `CCOC(=O)c1c(NC(=O)C2C3C=CC(C3)C2(C)C(=O)O)sc2c1CCCC2` (stereo not shown), 9.89%.

For the compound `CCCCc1ccc(NC2=NCC(=O)N2CCc2ccccc2)cc1.Cl`, the “hERG current change (%, negative = inhibition) at 1uM” value is given as -2.78%.

As to `CN1CCN(c2ccc(/C=C3\C(=O)NC(=S)N(c4cccc(Br)c4)C3=O)o2)CC1`, the “hERG current change (%, negative = inhibition) at 1uM” value is on record as 2.41%. Turning to `NC(=O)c1nsc(C(=O)N(Cc2cccnc2)C(C(=O)NCc2ccc(F)cc2)c2ccc(O)cc2)c1N` (stereo not shown), the “hERG current change (%, negative = inhibition) at 1uM” value is 11.4%.
